Source: PubChem BioAssay AID686978 (National Center for Advancing Translational Sciences (NCATS), 2013)
Where “and” joins values, the source holds several entries; their conditions need not be identical. Identical values can stand only once. Hit rate of the full screen: of about 420,000 compounds, about 64,000 (15%) were called active. The inconclusive results got no clear call from the source; some entries with a clear call stand among them for comparison. The call rests on the fitted dose curve; in most records, active means well fitted inhibition curve with a large enough effect; inconclusive means small, poorly fitted or top-dose-only effect; inactive means flat fitted curve, though single readings scatter. Potencies of inconclusive entries are left out as doubtful fits. The source holds several records for some structures; these can differ, active in one and inactive in another.

Assay: qHTS for Inhibitors of human tyrosyl-DNA phosphodiesterase 1 (TDP1): qHTS in cells in absence of CPT; further: nearly all actives have a fitted effect of over 55% in size
Conditions: DT40 Tdp1-/- hTDP1 cells, no CPT, ATP luminescence, 48 h; activity change, negative = growth inhibition: at 46.2 µM (top of the series) unless noted
Source text: Human tyrosyl-DNA phosphodiesterase 1 (TDP1) is a novel repair gene, and we propose to use it as a new target for anticancer drug development. TDP1 is not an essential protein, but under treatment with topoisomerase I poison (camptothecin: CPT), TDP1 works as a critical factor for cell survival. To directly identify novel TDP1 inhibitors active in a cellular environment, we have knocked-out the Tdp1 gene in chicken DT40 cells (Tdp1-/-) and generated a complemented counterpart cells that contains a stable transfection of the human TDP1 gene (Tdp1-/-;hTDP1 cells). For the primary screen, Tdp1-/-;hTDP1 cells will be exposed to small molecules in the presence or absence of CPT, and their growth kinetics will be evaluated after 48 hours by measuring ATP activity. […] The hit compounds will then be evaluated in the presence or absence of CPT using Tdp1-/- cells. […] In tertiary assays, biochemical gel-based assays will be used to assess whether the hit compounds specifically target TDP1.
To this end, we have screened this cell line against the MLSMR in two primary screens. In one screen we add CPT and in the other we screen in the absence of CPT; this AID represents the screen where CPT was absent.
NIH Chemical Genomics Center [NCGC]
NIH Molecular Libraries Probe Centers Network [MLPCN]
Assay Submitter (PI): Yves Pommier, NCI
DT40-hTDP1 cells without 20 nM Camptothecin (add 20 microL of DMSO in 1 L of cell culture medium) were dispensed at 400 cells/5microL/well in tissue culture treated 1536-well white wall/solid bottom assay plates (Greiner Bio-One North America, NC, U.S.A.) using a Multidrop Combi 8 channel dispenser (Thermo Fisher, Waltham, MA, USA). 23 nL compounds and controls were transferred using the pin tool (Kalypsys, San Diego, CA, USA) to the assay plates. The assay plates were then incubated at 37 masculineC for a minimum 48 hr. Three microL of Cell Titer Glo solution was added to the plates and incubated at RT in dark for 30 min. Luminescence was read using ViewLux (Perkin Elmer) with 1 sec exposure slow speed, high gain and 2x binning.
On the % scale 0 is the no-effect control and ±100 the full control effect; potency means the concentration at half of the fitted maximal effect; tags describe the fitted curve by direction and shape.

Row | SMILES | activity change, negative = growth inhibition | Potency
1 | C=CCN1C(=O)NC(=O)/C(=C/c2c(CCN(C)C(=O)c3ccccc3)cc3c(c2OC)OCO3)C1=O | inactive: -4.21% | –
2 | COC(=O)C1=C(c2ccccc2)C[C@@H]2CC[C@H]1N2C(=O)NCCNC(C)=O | inactive: -12.5% | –
3 | NC(N)=Nc1ccc2[nH]c3c(c2c1)C[C@@]1(O)[C@H]2Cc4ccc(O)c5c4[C@@]1(CCN2CC1CC1)C3O5 (stereo not given in full) | inactive: -8.38% | –
4 | CC(C)(C)NC(=S)N1CCn2cccc2C1c1cccnc1 (stereo not given) | inactive: 4.43% | –
5 | COc1ccc(CCn2c(O)c(/C=N/N3CCOCC3)c(=O)[nH]c2=O)cc1OC | inactive: -26.6% | –
6 | Cc1ccc(O)c(C(=O)c2cc(C(=O)NCc3ccccc3)c(=O)n(Cc3ccccc3)c2)c1 | – | active: 11.6 µM
7 | CCCCn1nnnc1C(CCc1ccccc1)N1CCC2(CC1)C(=O)NCN2c1ccccc1 (stereo not given) | – | inconclusive [inhibitor, single point]
8 | CN(C)P(=NC(=S)c1cccn1C)(N(C)C)N(C)C | – | active: 4.11 µM
9 | COC(=O)C1=C(c2ccc(F)cc2OCc2ccccc2)C[C@@H]2CC[C@H]1N2C(=O)NCCNC(C)=O | – | inconclusive [inhibitor, partial curve, poor fit]
10 | Cc1ccc(C(O)(C(=O)OC(C)C)C(O)c2ccc(F)cc2)cc1 (stereo not given) | – | active: 20.6 µM
11 | CC(C)(C)C(=O)OC[N+](C)(C)CCOC(=O)C(O)(c1ccccc1)C1CCCC1 (stereo not given) | inactive: -24.3% | –
12 | CCCN1CCCC(C(=O)c2cc(C)c(OC)c(C)c2)C1 (stereo not given) | – | inconclusive [inhibitor, single point]
13 | CCOc1cc(-c2ccc(N)c(OCC)c2)ccc1N | – | inconclusive [inhibitor, single point]
14 | CC(=NCc1ccc2c(c1)OCO2)c1c(O)n(C)c(=O)n(C)c1=O | – | inconclusive [inhibitor, partial curve]
15 | COc1ccccc1OCCCn1cc(C(=O)c2ccco2)c2ccccc21 | – | inconclusive [inhibitor, single point]
16 | c1ccc(N2CC[C@@]3(CCCNC3)C2)nc1 | – | inconclusive [inhibitor, single point]
17 | CCCCCCCCCc1ccc(OCCOCCO)cc1 | – | active: 2.99 µM
18 | COc1ccc2ccccc2c1CNCCc1ccccc1 | – | inconclusive [inhibitor, single point]
19 | CC[C@H]1CC2CN3CCc4c([nH]c5ccccc45)C(C(=O)OC)(C2)C13 (stereo not given in full) | – | inconclusive [inhibitor, single point]
20 | COC(=O)C1=C(c2ccccc2OCc2ccccc2)C[C@@H]2CC[C@H]1N2C(=O)NCc1ccc(N(C)C)cc1 | – | inconclusive [inhibitor, single point]
21 | Cc1nc(SCc2c(Cl)cccc2Cl)nc(OC(=O)N(C)C)c1C | – | inconclusive [inhibitor, single point]
22 | Cc1cccc(N=Nc2ccc(N(C)C)cc2)c1 | inactive: -19.2% | –
23 | CNc1ccc2oc(C[C@@H]3OC4(CC[C@@H]3C)O[C@H]([C@@H](C)C(=O)c3ccc[nH]3)[C@H](C)C[C@H]4C)nc2c1C(=O)O (stereo not given in full) | – | active: 4.61 µM
24 | CCCn1c(C)c(C(=O)c2cccc3ccccc23)c2ccccc21 | – | active: 13.3 µM

Row | SMILES | activity change, negative = growth inhibition | Potency
25 | O=c1c2ccccc2nc(/C=C/c2ccc3c(c2)OCO3)n1-c1cccc(O)c1 | – | inconclusive [inhibitor, single point]
26 | COC(=O)c1c(N)n(Cc2ccc(OC)cc2)c2nc3ccccc3nc12 | – | active: 16.4 µM
27 | CCCCn1c(=O)c(C(=O)NCc2ccco2)c(O)c2ccccc21 | – | inconclusive [inhibitor, single point]
28 | CC1(C)CN2C(c3ccc(Cl)cc3)N2C1 (stereo not given) | inactive: -16.1% | –
29 | COc1ccccc1-n1c(-c2ccoc2)nc2ccccc2c1=O | – | active: 18.4 µM
30 | CC(C)(C)OC(=O)N1CCCC(C(=O)Nc2cccc(C(=O)NCCc3ccccc3)c2)C1 (stereo not given) | – | active: 20.6 µM
31 | CCC1/C=C/C=CCC(C)C(O)[C@@](C)(O)C(=O)C(C)C(O)C(C)C(=O)C(C)C(O)C(C)C=CC(=O)O[C@H]2C(C)C(CC1)O[C@]1(CCC(C)C(CC(C)O)O1)C2C (stereo not given in full) | – | active: 0.0058 µM
32 | COc1cc(OC)c(OC)cc1CNC(C)C(O)c1ccccc1 (stereo not given) | inactive: -6.95% | –
33 | COc1ccccc1Cc1c(-c2ccc(C)cc2)nc2cc(C)c(Br)c(C)n12 | – | active: 16.4 µM
34 | CC(C)c1ccc2oc(-c3ccc(NC(=O)c4cc5ccccc5o4)cc3)nc2c1 | – | inconclusive [inhibitor, full curve]
35 | CN(C)[C@@H]1C(=O)C(C(N)=O)=C(O)[C@@]2(O)C(=O)C3=C(O)c4c(O)cccc4[C@@](C)(O)[C@H]3[C@H](O)[C@@H]12 | – | active: 18.8 µM and active: 5.8 µM
36 | Cc1nc(C)c(C(=O)NN=Cc2ccc(N(CCCl)CCCl)cc2)s1 | – | active: 11.6 µM
37 | Cc1[nH]c2c(C(F)(F)F)cccc2c1CCN | – | inconclusive [inhibitor, single point]
38 | CN1C(=O)N(C)C(=O)C2(Cc3cc([N+](=O)[O-])ccc3N(C)C2c2ccccc2)C1=O (stereo not given) | – | inconclusive [inhibitor, partial curve]
39 | O=C(CCc1ccccc1)N1Cc2cc(-c3cccc(F)c3)ccc2-n2nncc2C1 | – | inconclusive [inhibitor, single point]
40 | CCOC(=O)[C@]12Cc3cc(Cl)ccc3[C@H]1N(C1CCCCC1)C(=O)c1cc(OC)ccc12 | – | active: 0.517 µM
41 | c1ccc(C(c2ccccc2)c2ccncc2)cc1 | – | active: 20.6 µM
42 | CCN1C(=O)/C(=C/c2ccc3c(c2)CCN3CCCCl)C(=O)NC1=S | – | active: 23.1 µM
43 | Cc1cccc(Cc2cnc[nH]2)c1C | inactive: -2.5% | –
44 | CN1C(=O)/C(=C\N2CCc3ccccc32)C(=O)NC1=S | – | inconclusive [inhibitor, partial curve, poor fit]
45 | CN(c1ccccc1)c1ccc([N+](=O)[O-])c2nonc12 | – | active: 16.4 µM
46 | COc1ccc2nc(NC(=O)CCNS(=O)(=O)c3ccc4c(c3)oc(=O)n4C)sc2c1 | – | inconclusive [inhibitor, partial curve]
47 | CC(C)CCC[C@@H](C)[C@H]1CC[C@H]2[C@@H]3C(=O)C=C4C[C@@H](O)CC[C@]4(C)[C@H]3CC[C@]12C | – | inconclusive [inhibitor, partial curve, poor fit]
48 | Cn1c(O)c(C=NCCc2c[nH]c3ccccc23)c(=O)n(C)c1=O | – | inconclusive [inhibitor, single point]

Row | SMILES | activity change, negative = growth inhibition | Potency
49 | CCN(C[C@H]1N[C@@](C)(C(=O)OC)[C@H]2C(=O)N(Cc3ccccc3)C(=O)[C@@H]12)C(=O)Nc1ccc(C)cc1 | – | inconclusive [inhibitor, single point]
50 | O=C1NCN(c2ccccc2)C12CCN(C(c1cc3ccccc3o1)c1nnnn1-c1ccc3c(c1)OCCO3)CC2 (stereo not given) | – | active: 23.1 µM
51 | Cc1ccc(Cl)cc1N1CCN(c2ncnc3c2nc2n3CCCC2)CC1 | – | active: 18.4 µM
52 | COC(=O)C1=C(c2ccc(F)cc2OCc2ccccc2)C[C@@H]2CC[C@H]1N2C(=O)NC1CCCCC1 | – | inconclusive [inhibitor, single point]
53 | Cc1ccc(CN2CCCC(C(=O)c3sccc3C)C2)o1 (stereo not given) | – | active: 20.6 µM
54 | Cc1ccc(CNC(=O)c2ccc(CSc3nc4ccncc4n3Cc3ccc(C)cc3)cc2)cc1 | – | active: 8.2 µM
55 | CCOC(=O)c1cnc2c(ccc3ccccc32)c1Nc1ccc(N(C)C)cc1 | – | inconclusive [inhibitor, single point]
56 | CCCCCCOc1ccc(CN2CCN(CCO)CC2)cc1 | – | active: 20.6 µM
57 | COc1cc(OC)c(OC)cc1/C=C1/C(=O)NC(=O)N(Cc2ccccc2)C1=O | – | inconclusive [inhibitor, partial curve]
58 | COc1ccc(Cl)cc1C(=O)C1CCCN(CCO)C1 (stereo not given) | inactive: -9.61% | –
59 | O=C(NC1CN2CCC1CC2)c1ccc(-c2ccc([N+](=O)[O-])cc2)o1 (stereo not given) | – | inconclusive [inhibitor, partial curve, poor fit]
60 | CN1CCC(O)(c2ccc(Cl)cc2)C(C(=O)c2ccc(Cl)cc2)C1 (stereo not given) | – | active: 2.91 µM
61 | Oc1ccc2c3c1O[C@H]1c4[nH]c5ccccc5c4C[C@]4(O)[C@H](C2)N(CC2CC2)CC[C@@]314 | – | inconclusive [inhibitor, partial curve, poor fit]
62 | CCCCCCn1c(O)c(/C=N/N2CCCCCC2)c(=O)[nH]c1=O | inactive: -26.8% | –
63 | CCN1C[C@@H]2[C@@H]3C(=O)N(Cc4ccccc4)C(=O)[C@@H]3[C@](CC)(C1=O)N2C(=O)c1ccc(C(C)(C)C)cc1 | – | inconclusive [inhibitor, single point]
64 | COc1ccc(CNCCc2ccc(Cl)cc2)c(OC)c1OC | – | active: 9.2 µM
65 | CC(=O)Nc1ccc(NC(=O)CN(c2ccc(C34CC5CC(CC(C5)C3)C4)cc2)S(C)(=O)=O)cc1 | – | inconclusive [inhibitor, single point]
66 | CN1CCN(/N=C/c2c(O)n(Cc3ccc(F)cc3)c(=O)[nH]c2=O)CC1 | inactive: 10.1% | –
67 | C=C1C2C[C@@]3([C@@H]1O)[C@@H](C[C@@H]2O)[C@@]12C4[C@@H]3C[C@@H]1[C@@](C)(CC[C@@H]2O)CN4CC | inactive: 1.76% | –
68 | CC(=NCCO)c1c(O)n(C2CCCCC2)c(=O)[nH]c1=O | inactive: -15.4% | –
69 | C=CCc1c(C)[nH]c(=S)c(C#N)c1C | – | inconclusive [inhibitor, single point]
70 | O=C(NCC1=C(c2ccc3ccccc3c2)C[C@@H]2CC[C@H]1N2Cc1ccco1)c1ccncc1 | – | inconclusive [inhibitor, single point]
